Laboratory results taken from PubChem BioAssay AID463173 (ICCB-Longwood Screening Facility, Harvard Medical School, 2010).
Screen size: about 52,000 compounds; about 4,300 (8.3%) were called active. No stated cut-off is given here; in the data, active means survival mostly below about 52% (no sharp cut-off); inactive means mostly above about 56%. Some of the results follow.

tested on: DeltatarO mutant; test: S. aureus survival, RN4220 and DeltatarO strains – OD600, teichoic acid synthesis inhibitors, primary screen (AID 463173); details: S. aureus RN4220 wild type/DeltatarO growth, OD600, 18 h, active compounds read low, screened at 18.75 µg/mL (by protocol)

| Structure (SMILES) | survival |
| --- | --- |
| COc1ccc(CCNc2ncnc3c2cnn3-c2cccc(Cl)c2)cc1 | inactive: 102% |
| CC(C)CCNC(=O)c1ccc2c(c1)NC(=O)C(CS(=O)(=O)Cc1cccc(Br)c1)N2 (configuration not stated) | inactive: 116% |
| Cc1ccc(NC(=O)/C(C#N)=C/c2ccc(C)o2)cc1 | inactive: 79% |
| Cc1ccc(Cn2ccnc2SCC(=O)NCc2ccc(F)cc2)cc1 | inactive: 101% |
| COc1ccc(-c2cc(C(F)F)nc(-n3nc(C)cc3C)n2)cc1 | inactive: 91% |
| COc1ccc(NC(=O)CSc2nc3ccccc3n2CC(=O)N(C)c2ccc(F)cc2)cc1 | inactive: 87% |
| COCCNC(=O)CCCN1C(=O)c2ccccc2Sc2ncccc21 | inactive: 70% |
| Cc1ccc(N=Cc2ccc(C)o2)cc1 | inactive: 98% |
| COc1ccc(-c2nc(CSCC(=O)N3CCN(c4ccc(OC)cc4)CC3)c(C)o2)cc1 | inactive: 77% |
| CC1CCCCN1C(=O)c1ccccc1F (configuration not stated) | inactive: 98% |
| Cc1ccc(-n2c(C)cc(CO)c2C)cc1 | inactive: 84% |
| O=S(=O)(c1cccc(F)c1)N1CCC(c2nc3ccccc3s2)CC1 | inactive: 98% |
| CCS(=O)(=O)N1CC(=O)N(c2cccc(Cl)c2C)C(C)(C(=O)NC2CCCCC2)C1 (configuration not stated) | inactive: 76% |
| COc1ccc(CCN=C(N)Nc2nc(C)cc(C)n2)cc1 | active: 39% |
| CCCN(c1ccccc1CC)S(=O)(=O)c1ccc2c(c1)CC(C)N2C(=O)C1CC1 (configuration not stated) | inactive: 50% |
| CC(C)CSc1nnc2c3ccccc3n(C)c2n1 | inactive: 68% |
| CCCCC(CC)CNC(=O)CCCn1c(=O)[nH]c2ccsc2c1=O (configuration not stated) | inactive: 111% |
| COc1ccc(C)cc1Nc1nc(-c2cccc(Cl)c2)c2c(n1)-c1ccccc1OC2 | inactive: 68% |
| COc1cc(-c2nc(Cn3nnc(C(=O)Nc4cc(C)cc(C)c4)c3C)c(C)o2)cc(OC)c1OC | inactive: 42% |
| NNC(=O)c1c(O)c2ccccc2[nH]c1=O | inactive: 52% |
| CCOC(=O)c1cc(-c2ccccc2)n(CC(=O)N(C)c2ccc(OC)cc2)c1C | inactive: 107% |
| CCOc1ccc(NC(=O)C(NC(=O)C2CCC(C)CC2)C(C)C)cc1 (configuration not stated) | inactive: 71% |
| CCCCN(CCCC)CC(O)Cn1cc(/C=C/C(=O)c2ccccc2)c2ccccc21 (configuration not stated) | active: 5% |

| Structure (SMILES) | survival |
| --- | --- |
| COc1cccc2c1cc1c(=O)n(CC(=O)NC3CC3)nc(C)n12 | inactive: 109% |
| O=c1c(=O)n(-c2cccc(Cl)c2)ccn1Cc1cccc(F)c1 | inactive: 66% |
| CC(=O)N1CCc2cc(S(=O)(=O)NC(CC(C)C)C(=O)NCc3ccccc3)ccc21 (configuration not stated) | inactive: 75% |
| O=c1c2c(nc3n1CCCS3)-c1ccccc1CC21CCCC1 | inactive: 73% |
| COc1cccc(-c2nc(CSCC(=O)NCCc3ccc(Cl)cc3)c(C)o2)c1 | active: -4% |
| Cc1nnc(SCC(=O)Nc2ccc(Br)cc2)[nH]c1=O | inactive: 101% |
| Cc1ccc(C(=O)NS(=O)(=O)c2ccccc2)cc1 | inactive: 77% |
| COc1ccc(C2C(=O)N(C3CCC(C)CC3)CC(=O)N2CCc2ccccc2)cc1OC (configuration not stated) | inactive: 64% |
| CSc1cccc(NC(=O)CN(c2ccccc2)S(=O)(=O)N(C)C)c1 | inactive: 132% |
| CC1CCN(S(=O)(=O)c2ccc3c(c2)N(CC(=O)NC(C)c2ccccc2)C(=O)CO3)CC1 (configuration not stated) | inactive: 107% |
| Cc1cc(N2CCCCC2)nc2ccc(NC(=O)c3cccc(F)c3)cc12 | inactive: 83% |
| Nc1c(-c2nc(-c3ccc(Cl)cc3)cs2)c2ccccn2c1C(=O)c1ccc2c(c1)OCO2 | inactive: 101% |
| Cc1c(C)n(Cc2ccc(Cl)cc2)c2ccc(C(=O)NCCc3ccc(S(N)(=O)=O)cc3)cc12 | inactive: 117% |
| COCCCNC(=O)c1cc2c(=O)n3cccc(C)c3nc2s1 | inactive: 70% |
| O=S(=O)(Nc1cccc(-c2ccc(N3CCCCC3)nn2)c1)c1cccc(F)c1 | inactive: 91% |
| CCCCc1nc2ccccc2n2c(-c3ccc(C)cc3)c3c(=O)n(C)c(=O)n(C)c3c12 | inactive: 69% |
| O=[N+]([O-])c1cc(-c2nc(-c3cccnc3)no2)ccc1NCc1ccccc1 | inactive: 63% |
| CC(C)c1ccc(NC(=O)CN2C(=O)COc3ccc(S(=O)(=O)Nc4ccccc4)cc32)cc1 | inactive: 81% |
| O=C(Nc1ccc(Br)cc1)C1CCN(S(=O)(=O)c2cccc3nsnc23)CC1 | inactive: 88% |
| CC(C)OCCCNC(=O)CCCn1c(SCC(=O)c2ccc(F)cc2)nc2c(sc3ccccc32)c1=O | inactive: 92% |
| Cc1ccc2oc(=O)c3cnn(CC(=O)Nc4cccc(C(F)(F)F)c4)c3c2c1 | inactive: 87% |
| NC(=O)/C(=C\c1ccco1)NC(=O)c1ccco1 | inactive: 88% |
| O=C(NCC(c1ccco1)S(=O)(=O)c1ccc(Cl)cc1)c1ccccc1F (configuration not stated) | inactive: 94% |

| Structure (SMILES) | survival |
| --- | --- |
| COc1ccc(CCNC(=O)c2nnc(Cc3ccc(Cl)cc3)o2)cc1OC | inactive: 74% |
| CCCc1nnc(NC(=O)Cc2coc3cc(C)cc(C)c23)s1 | inactive: 81% |
| CCOc1ccc(Nc2nc3ccccc3n3c(CC)nnc23)cc1 | active: 36% |
| CCCN1CCN(CCCNC(=O)c2cnn(-c3ccc(F)cc3)c2-n2cccc2)CC1 | inactive: 81% |
| O=S(=O)(c1cccc(C(F)(F)F)c1)n1c(/C=C/c2ccccc2)nc2ccccc21 | inactive: 71% |
| O=C(Cn1c(=O)n(-c2ccccc2)c(=O)c2sc3ccccc3c21)N1CCCC1 | inactive: 92% |
| CSc1nc2sc3c(c2c(=O)n1-c1ccccc1C)CCCC3 | inactive: 97% |
| CCC(=O)N1CCc2cc(Br)cc(S(=O)(=O)NCc3ccc(Cl)cc3)c21 | inactive: 46% |
| Cc1cccc(N2C(=O)CSC23C(=O)N(Cc2cccc(C(F)(F)F)c2)c2ccccc23)c1 (configuration not stated) | inactive: 107% |
| COCC(=O)N1c2nc(C(C)C)nn2C2(CCCCC2)[C@@H]2CCCC[C@@H]21 | inactive: 74% |
| Cc1c(C(=O)NCc2ccccc2)sc2nc3n(c(=O)c12)CCC3 | inactive: 106% |
| COC(=O)c1ccc(S(=O)(=O)N(C)C)o1 | inactive: 68% |
| CN(C)C(=O)CSc1ccc(-c2ccc(F)cc2)nn1 | inactive: 92% |
| COCCCNC(=O)CSc1c2c(nc3ccc(Cl)cc13)CCCC2 | inactive: 68% |
| CCN(c1ccc(OC)cc1)S(=O)(=O)c1nnc(NC(=O)c2ccccc2Cl)s1 | active: 46% |
| Cc1ccc(CNC(=O)c2ccc(CSCc3ccc(C)cc3)o2)cc1 | inactive: 95% |
| CCOc1ccc(C2c3c(oc4ccc(C)cc4c3=O)C(=O)N2Cc2ccc3c(c2)OCO3)cc1OC (configuration not stated) | inactive: 136% |
| C=Cc1ccc(CSc2nc(-c3ccccc3Cl)nc3c2Cc2c(CO)cnc(C)c2O3)cc1 | inactive: 75% |
| Cc1nc(N2CCCC2)c2c(C(=O)N3CCN(c4cccc(Cl)c4)CC3)c(C)oc2n1 | inactive: 102% |
| COc1ccc(N2CCN(C(=O)c3ccc(CS(=O)(=O)c4ccc(Br)cc4)o3)CC2)cc1 | inactive: 128% |
| O=C(NC1CCCC1)c1cnn2c(C(F)F)cc(-c3ccccc3)nc12 | inactive: 78% |
| CCN(c1ccccc1)c1nnc(NC(=O)Nc2cccc(Br)c2)s1 | inactive: 80% |
| Cc1cc(C)cc(-n2ccn(CC(=O)Nc3ccccc3C(F)(F)F)c(=O)c2=O)c1 | inactive: 63% |

| Structure (SMILES) | survival |
| --- | --- |
| O=C1CC(c2nc3ccccc3n2CCCOc2ccccc2)CN1c1ccc(F)cc1 (configuration not stated) | inactive: 97% |
| CN(C)CCNC(=O)CCCN1C(=O)c2cccnc2Oc2ccc(Cl)cc21 | inactive: 78% |
| Cc1ccc(N2CC(C)Cn3c2nc2c3c(=O)n(CC(=O)O)c(=O)n2C)cc1 (configuration not stated) | inactive: 83% |
| COc1ccc(Cn2nnnc2CN2CCN(C)CC2)cc1 | inactive: 102% |
| CCOC(=O)c1c(SCC(=O)Nc2nc3ccc(C)cc3s2)nc(=O)[nH]c1C | inactive: 70% |
| CC(C)(C)C1CCc2oc3ccc(NS(=O)(=O)c4cc(Cl)ccc4Cl)cc3c2C1 (configuration not stated) | inactive: 73% |
| Cc1cccc(CSc2cn(CC(=O)N3CCCCC3)c3ccccc23)c1 | inactive: 76% |
| CCCC(=O)OC1=CN(Cc2ccccc2)S(=O)(=O)c2ccccc21 | inactive: 67% |
| O=C(Cn1cc(SCc2cccc(F)c2)c2ccccc21)N1CCOCC1 | inactive: 74% |
| CN1C(=O)N(C)C2C1N(C)S(=O)(=O)N2C (configuration not stated) | inactive: 94% |
| COc1cc(OC)c(NC(=O)CSc2nccn2C)cc1Cl | inactive: 73% |
| C/C(=N/NC(N)=S)c1ccc(Br)s1 | inactive: 112% |
| Cc1ccc(CNC(=O)c2ccc(-n3c(C)cc4c3CCCC4)cc2)cc1 | inactive: 78% |
| CC1CCN(c2oc(-c3cccs3)nc2S(=O)(=O)c2ccc(Cl)cc2)CC1 | active: 17% |
| Cc1ccc(OCC(=O)Nc2ccc3nc(SCC(=O)N4CCCC4)sc3c2)cc1 | inactive: 90% |
| O=C(CSc1nc2cc(C(=O)NC3CCCC3)ccc2c(=O)n1CC1CCCO1)c1ccc(F)cc1 (configuration not stated) | inactive: 96% |
| CNC(=O)c1ccc2c(c1)N=C(C)c1cc(C)ccc1S2 | inactive: 70% |
| Cc1ccc(C)c(S(=O)(=O)c2cn(Cc3ccccc3)c3cc(F)c(F)cc3c2=O)c1 | inactive: 80% |
| CCOc1ccc(N(c2nc(-c3ccc(OC)c(OC)c3)no2)c2nc(-c3ccc(OC)c(OC)c3)no2)cc1 | inactive: 73% |
| O=C(Cn1ccn(-c2ccc(F)cc2)c(=O)c1=O)NCCc1ccccc1 | inactive: 57% |
| CC(=O)N1c2ccc(S(=O)(=O)N3CCN(c4ccc(C)cc4C)CC3)cc2CC1C (configuration not stated) | inactive: 91% |
| CC1(C)CC(N=CC2=C(O)c3ccccc3C2=O)CC(C)(C)N1 | inactive: 95% |
| CCOC(=O)c1cnc2ccc(C)cc2c1Nc1ccc(OCc2ccccc2Cl)cc1 | active: 2% |
